The full ranking holds about 33,000 sequences; the median of “E-score (-0.5 to 0.5)” is about -0.021, and the highest 2% start at about 0.32. The list shows a part of the results.
molecular target: T1, Zap1 (UniProt P47043); test: PBM E-score (8-mer binding enrichment) (E-score (-0.5 to 0.5)); higher = stronger / more preferred TF binding; most listed sequences are background and not binding sites; conditions: protein concentration: 200 nM; construct: GST-full length
T1 sequence: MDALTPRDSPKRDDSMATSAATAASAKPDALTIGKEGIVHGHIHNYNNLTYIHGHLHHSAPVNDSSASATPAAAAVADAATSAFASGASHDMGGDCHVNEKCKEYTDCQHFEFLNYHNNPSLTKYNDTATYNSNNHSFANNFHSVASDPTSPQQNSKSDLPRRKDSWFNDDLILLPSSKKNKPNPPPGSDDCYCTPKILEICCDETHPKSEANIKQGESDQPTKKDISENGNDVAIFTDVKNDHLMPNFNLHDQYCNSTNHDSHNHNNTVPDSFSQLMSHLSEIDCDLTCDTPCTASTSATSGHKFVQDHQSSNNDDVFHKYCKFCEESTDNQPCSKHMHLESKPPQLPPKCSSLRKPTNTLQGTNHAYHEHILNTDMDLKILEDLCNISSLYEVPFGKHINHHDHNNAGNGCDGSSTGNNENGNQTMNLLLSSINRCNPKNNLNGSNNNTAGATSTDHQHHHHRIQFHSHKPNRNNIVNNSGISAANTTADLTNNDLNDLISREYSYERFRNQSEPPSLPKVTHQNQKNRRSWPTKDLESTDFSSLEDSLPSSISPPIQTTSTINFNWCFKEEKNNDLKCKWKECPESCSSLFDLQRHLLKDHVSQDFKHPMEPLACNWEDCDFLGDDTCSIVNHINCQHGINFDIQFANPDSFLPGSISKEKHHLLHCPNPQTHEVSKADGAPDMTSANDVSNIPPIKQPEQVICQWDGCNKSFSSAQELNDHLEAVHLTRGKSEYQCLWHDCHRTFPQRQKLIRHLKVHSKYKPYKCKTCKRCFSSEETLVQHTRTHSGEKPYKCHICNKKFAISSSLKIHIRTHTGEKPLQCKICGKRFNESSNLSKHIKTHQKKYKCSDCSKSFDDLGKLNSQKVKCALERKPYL
Outline: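 Using PURExpress in vitro transcription/translation, GST-tagged yeast transcription factors were made in full-length or DNA-binding-domain form. These were applied at about 100-200 nM to double-stranded universal all-10-mer Agilent arrays, and bound protein was detected with fluorescent anti-GST. Scans were normalised with masliner before the Universal PBM Analysis Suite assigned E-scores to ungapped eight-base words pooled with their reverse complements.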

| Sequence | PBM E-score |
| --- | --- |
| ATTTTTGA | 0.103 |
| AGGGCTCG | -0.284 |
| CCTCACCA | 0.0877 |
| AAGAAATG | 0.0183 |
| ACCGAGGG | -0.0852 |
| CCCGGGTC | 0.0771 |
| CGGGTAAA | 0.144 |
| AGCGCGGC | 0.00764 |
| CTACTCTA | 0.0662 |
| GATCTGAC | -0.146 |
| CGATTAAA | 0.128 |
| ATTTGGTA | 0.253 |
| AGCGTTCC | -0.232 |
| GATTAATC | 0.13 |
| CTATTGAG | 0.108 |
| CATCCTCG | -0.191 |
| ATATTATG | 0.152 |
| GTCGCTAA | 0.0353 |
| ATATGCAA | -0.167 |
| CCAACGAG | -0.237 |
| CTGGTCCC | -0.26 |
| AACTATTA | 0.109 |
| ACTTAATG | 0.0759 |
| GGGACCAC | -0.11 |
| AGGTACTG | 0.172 |

| Sequence | PBM E-score |
| --- | --- |
| ATTAGACA | 0.0517 |
| ACGGAGAT | -0.211 |
| AAATTAAC | 0.244 |
| AGCCGATG | -0.139 |
| TTTCGAAA | 0.09 |
| TATTACGA | 0.124 |
| CCTCGTTC | -0.0521 |
| ATATTGAT | 0.00311 |
| AATCCCAA | -0.0211 |
| ATCAAACA | 0.114 |
| CACACCTA | -0.0992 |
| CGGGGCCA | 0.0429 |
| ACTGGCAT | -0.196 |
| CAATTATG | 0.0708 |
| ACGCATAT | -0.164 |
| TGTAGACA | -0.0256 |
| CGGCTCAG | -0.0416 |
| CATGATAA | 0.0833 |
| CTGTTCTA | -0.0855 |
| CTCGGAAC | 0.188 |
| ATCGTGTA | 0.0225 |
| ACGCATAG | -0.226 |
| GCATGTCC | -0.0606 |
| ACGCATCT | -0.0868 |
| CAGTCGCA | -0.22 |

| Sequence | PBM E-score |
| --- | --- |
| ACCGAATC | -0.0911 |
| CTGCCACC | -0.206 |
| ACAAGCGC | -0.179 |
| AATGCGTC | -0.146 |
| CGGCTACC | 0.214 |
| AGAGCCTC | -0.226 |
| CTGGCTCC | -0.187 |
| CAGAGATA | 0.103 |
| CAGAGTAA | -0.0034 |
| GTTCCTTA | 0.0411 |
| ACGGGAAG | -0.247 |
| TCATCGCA | -0.133 |
| AATAGTGA | 0.0939 |
| AGGGAGTG | -0.24 |
| AGCACGTG | -0.0712 |
| AGAGGCAG | -0.221 |
| ACTAGCCC | 0.0554 |
| AACTGTAT | 0.113 |
| CCTCATAG | 0.0183 |
| CCAGGAAG | -0.0138 |
| GCTAGTAC | -0.0763 |
| AGGCAACT | -0.121 |
| TATCCTCA | 0.0438 |
| AAGGGACC | 0.117 |
| AACGAAAT | 0.146 |

| Sequence | PBM E-score |
| --- | --- |
| CAACCGAA | 0.199 |
| ACAACACA | 0.113 |
| GCGGGTAC | 0.256 |
| ACGGTAAG | 0.016 |
| AGAATGGC | 0.051 |
| ACAGCCAT | -0.215 |
| AGTTCGAT | -0.0585 |
| AATGGGGG | -0.346 |
| AACTCCGT | -0.0145 |
| AAGAAAGC | -0.113 |
| AAGAAATC | -0.146 |
| CCCCGTGA | -0.0483 |
| CGCAGGTC | -0.0853 |
| GAGAATAA | 0.0442 |
| AAACTAGC | -0.168 |
| GGATAAAC | 0.149 |
| AAAGCACA | -0.00105 |
| AACCTGCA | 0.286 |
| GGTTACAA | 0.455 |
| AATACATA | 0.0387 |
| AACGGGCG | -0.18 |
| GGGTTTAC | 0.316 |
| TATAAATA | 0.27 |
| ATACGCCG | -0.298 |
| ATACCTAA | 0.304 |

| Sequence | PBM E-score |
| --- | --- |
| AGCGAGTA | 0.0024 |
| GATCTCAA | 0.00611 |
| ACTGGCAC | -0.121 |
| CTGAGACC | 0.0473 |
| GGATGGCC | -0.234 |
| AGTGCCAA | -0.103 |
| GAGGGGTA | 0.245 |
| GCTCATGA | 0.0315 |
| AGAGCGAA | -0.124 |
| CATTAGAC | -0.141 |
| CTGGTCTC | -0.235 |
| GAACTGAC | -0.147 |
| GCAACCAC | 0.269 |
| ACGTTGCC | -0.361 |
| ACCCATTG | 0.166 |
| ACAACGCA | -0.131 |
| CCACTAAA | 0.145 |
| AGTTGGAG | -0.0267 |
| ATTTGATC | 0.0382 |
| CGCCTCAG | -0.281 |
| AATACCCC | 0.237 |
| AAAACCAG | 0.253 |
| ATGGAATA | 0.161 |
| CCTATCTA | -0.108 |
| CCTAGAAC | 0.039 |

| Sequence | PBM E-score |
| --- | --- |
| TAATCCCA | 0.0297 |
| ATCCGTCG | -0.22 |
| GATTGGAC | -0.162 |
| AGCAACAA | 0.14 |
| ACGGTGAT | -0.0843 |
| CAACGCGC | 0.0876 |
| AATATCTC | -0.0284 |
| ATATTGCG | -0.0735 |
| GTCCTCGA | 0.0326 |
| ACTCATTA | -0.0491 |
| ACAGAGCA | -0.0964 |
| CACGCACG | -0.143 |
| ACAGAGAT | 0.0241 |
| ATTGGGTG | 0.077 |
| ATTTTGCC | -0.0217 |
| CATCGTGG | -0.0787 |
| ACCGTGGG | -0.122 |
| TGCAGTAA | 0.0329 |
| GTCCGGAA | 0.103 |
| ACTAGGCA | -0.178 |
| AGGTCGCA | 0.0967 |
| AGGAGGGA | -0.153 |
| GTTTCAAA | 0.12 |
| GACACCAC | -0.0455 |
| AGATAAAT | -0.0348 |

| Sequence | PBM E-score |
| --- | --- |
| CGTAGTGA | -0.0549 |
| ACGGCAGC | -0.0925 |
| ACATACTC | -0.083 |
| AATGTAGC | -0.0565 |
| GTCACTCA | 0.129 |
| CAGGCGGA | -0.0688 |
| TAAAGAGA | -0.121 |
| ACTGCGTG | -0.165 |
| GCAATCTA | 0.0798 |
| GCAGCTCA | -0.357 |
| TGATAACA | 0.135 |
| CAGCGATC | 0.0433 |
| GGAACGCC | -0.146 |
| ACGGCCTG | -0.0565 |
| CCACCTGA | 0.0282 |
| AAAATCAA | -0.0641 |
| AACACCGC | 0.134 |
| ATCACTAC | 0.108 |
| TGTCTTAA | 0.0721 |
| AGTTCGGA | -0.0683 |
| ATTTGCAA | 0.0656 |
| GTTTAATA | 0.229 |

— the supplement of paper PMC3334620
